89 compounds from PubChem BioAssay AID463173 (ICCB-Longwood Screening Facility, Harvard Medical School, 2010) can be followed below.

The whole screen tested about 52,000 compounds, of which about 4,300 (8.3%) were called active. Cut-off read from the data, not from the text of the source: active = survival mostly below about 52% (no sharp cut-off); inactive = mostly above about 56%. The list shows a part of the results.

The subject of the assay is DeltatarO mutant. The assay can be described thus: growth inhibition of S. aureus wild type versus tarO mutant, primary screen, teichoic acid synthesis inhibitors, RN4220, OD600 (AID 463173). The settings on record: OD600, 18 h, active compounds read low, screened at 18.75 µg/mL (by protocol).
As to `O=C(CSc1nnc(Cn2nnc3ccccc32)o1)N(Cc1ccc(Cl)cc1)c1ccccc1`, the survival was inactive: 58%.

On to `Cc1cccc(CC(=O)N2CC(=O)Nc3ccc(C)cc3C2c2ccc(F)cc2)c1` (centres undefined), for which the survival is inactive: 50%.

For `COc1ccc(Br)cc1CNC(=O)c1ccc2nc(C(C)C)oc2c1`, the survival was inactive: 101%.

`N=c1c(S(=O)(=O)c2ccccc2)cc2c(=O)n3ccccc3nc2n1Cc1cccnc1`: the survival is inactive: 85%.

`COc1ccc(-n2cc(-c3ccccc3)nc2SCC(=O)Nc2ccccc2C)cc1`: the survival was inactive: 94%.

For `Cc1ccc(CNc2nc3ccc(Cl)cc3n3nnnc23)cc1`, the survival was inactive: 95%.

Regarding `CCOC(=O)N1CCc2c(sc(NCc3cccc(F)c3)c2C(=O)Nc2ccc(OC)cc2)C1`, the survival was inactive: 113%.

In the case of `COc1cc(NC(=O)CCn2c(=O)oc3ccccc32)cc(OC)c1OC`, the survival was inactive: 62%.

`COc1cc(OC)c(NS(=O)(=O)c2c(C(=O)N3CCCCCC3)c(C)n(C)c2C)cc1Cl`: the survival was inactive: 68%.

Take `Cc1cc(-c2ccc(C)c(S(=O)(=O)Nc3ccccn3)c2)on1`: the survival is inactive: 73%.

On to `COc1ccc(N(Cc2cccs2)C(=O)COc2cccc(C)c2C)cc1`, for which the survival is active: 17%.

Regarding `CSc1ccc(NC(=O)C2CCN(c3ncccn3)CC2)cc1`, the survival is inactive: 110%.

Take `CCN1CCN(c2ncc3c(n2)CCN(CC(C)C)C3)CC1`: the survival was inactive: 86%.

Regarding `Cc1ccc(S(=O)(=O)CCc2nnc(NC(=O)CCCC(=O)Nc3cc(C)on3)s2)cc1`, the survival is inactive: 104%.

With `Cc1cc(C)cc(-n2c(SCC(=O)Nc3cccc(F)c3)nc3c([nH]c4ccccc43)c2=O)c1`, the survival was inactive: 95%.

On to `COc1ccc(N2CCN(C(=O)COc3ccccc3C#N)CC2)cc1`, for which the survival was inactive: 91%.

Take `COc1ccc(OC)c(NC(=O)Cn2c(=O)n(Cc3ccco3)c(=O)c3cc(OC)c(OC)cc32)c1`: the survival was inactive: 91%.

Regarding `Cc1ccc(C)c(NC(=O)C(Cc2ccccc2)n2cccc2)c1` (centres undefined), the survival is inactive: 107%.

Take `CCOC(=O)C1=C(N)Oc2cc(C)oc(=O)c2C1c1ccccc1F` (centres undefined): the survival was inactive: 93%.

For `C=CCn1c(SCC(=O)Nc2cc(OC)c(NC(=O)c3ccco3)cc2OC)nnc1-c1ccncc1`, the survival is inactive: 90%.

As to `Cc1ccc(C(=O)Nc2ccc(-c3nc4ccccc4o3)cc2)cc1Cl`, the survival is inactive: 68%.

Consider `Brc1ccc(Nc2c3c(nc4nncn24)CCC3)cc1`, for which the survival was inactive: 65%.

As for `COc1ccccc1CNC(=O)CCCCn1c(=O)c2ccccc2n(CC(=O)Nc2c(C)cc(C)cc2C)c1=O`, the survival was inactive: 97%.

Take `CCOc1ccccc1CNC(=O)CCC(=O)N1CCSc2ccccc21`: the survival is inactive: 107%.

For `Clc1nc2ccccc2c(N2CCCCC2)c1CNC1CC1`, the survival is inactive: 96%.

Regarding `COc1ccccc1Cc1nc2ccccc2nc1SCC(=O)Nc1ccc2c(c1)OCO2`, the survival is inactive: 73%.

For the compound `CCCN(CCC)C(=O)CSc1c2c(nc3ccc(Cl)cc13)CCCC2`, the survival is active: 38%.

For the compound `Cc1ccc(NC(=O)CN2C(=O)C(c3ccc(C(C)(C)C)cc3)=NC2(C)C)cc1`, the survival is inactive: 64%.

As to `O=[N+]([O-])c1cc(-c2nc(-c3ccccc3)no2)ccc1NCc1cccnc1`, the survival was active: 47%.

`CCOC(=O)c1c(-c2ccc(OC)c(OC)c2)csc1NC(=O)c1ccc(C)cc1`: the survival was inactive: 57%.

`CCCCN1CCCc2cc(CN(CCCN3CCOCC3)C(=O)Nc3ccc(CC)cc3)ccc21`: the survival was inactive: 102%.

Regarding `O=C(O)c1cccc(NC(=O)c2cc3cc(Br)cc(Br)c3oc2=O)c1`, the survival is inactive: 82%.

Regarding `COc1ccc(-c2[nH]nc3oc(=O)cc(C)c23)cc1`, the survival is inactive: 84%.

Turning to `COc1ccc(S(=O)(=O)N(CC(=O)NCCSc2ccccc2)c2ccc(C)cc2)cc1`, the survival was inactive: 60%.

For the compound `Cc1cc(=O)[nH]c(SCC(=O)NC2CCCCC2)n1`, the survival was inactive: 84%.

For `CC(=O)c1cccc(NC(=O)Cc2ccc(NC(=O)N3CCCCc4ccccc43)cc2)c1`, the survival is inactive: 67%.

Turning to `CCCCNc1oc(-c2ccc(COc3ccccc3C)o2)nc1C#N`, the survival is inactive: 112%.

On to `CCOC(=O)c1cc(-c2ccccc2)n(CCC(=O)NCCc2cccc(C)c2)c1C`, for which the survival is inactive: 58%.

Regarding `COc1ccc(S(=O)(=O)NCCc2sc3nc(-c4ccc(C)cc4)nn3c2C)cc1C`, the survival was inactive: 86%.

For the compound `Cc1ccc(NC(=O)C2CCC(CNS(=O)(=O)c3ccc4c(c3)CCCC(=O)N4)CC2)cc1F` (centres undefined), the survival was inactive: 87%.

On to `COCCNc1nc2c(c(=O)n(Cc3cccc(Cl)c3)c(=O)n2C)n1C`, for which the survival was inactive: 54%.

On to `COc1ccc2c(c1)c1c(c(=O)n(Cc3ccccc3)c(=O)n1Cc1ccccc1Cl)n2C`, for which the survival is inactive: 83%.

In the case of `COc1ccc(OCC(=O)Nc2c(C(=O)N3CCN(c4ccccc4)CC3)oc3ccccc23)cc1`, the survival is inactive: 84%.

`CCc1ccc(NC(=O)C2=C(C)C(=O)OC23CCCCC3)cc1`: the survival is inactive: 77%.

Regarding `CCOc1ccccc1C(=O)NC1(C(F)(F)F)C(=O)Nc2c1c(=O)[nH]c(=O)n2-c1ccccc1` (centres undefined), the survival is inactive: 78%.

Take `Cc1cc(C)c(Cn2c3ccccc3c3cnn(CC(=O)NCCC4=CCCCC4)c(=O)c32)c(C)c1`: the survival is inactive: 72%.

Turning to `COc1cccc(CNC(=O)c2ccc3nc(-c4ccccc4)c(-c4ccccc4)nc3c2)c1OC`, the survival is inactive: 74%.

With `Cc1ccc(S(=O)(=O)c2cn(Cc3ccccc3)c3cc(N4CCCC4)c(F)cc3c2=O)cc1`, the survival was inactive: 71%.

In the case of `Cc1ccccc1OCC(=O)Nc1ccc(C(=O)OCc2cc(=O)n3ccsc3n2)cc1`, the survival was inactive: 117%.

Consider `Cc1ccccc1NC(=O)c1nc(S(C)(=O)=O)ncc1N(Cc1ccco1)Cc1sccc1C`, for which the survival was active: 43%.

As for `CCN1CC=C2C(C#N)=C(N)C(C#N)(C#N)C(c3ccc(OC)c4ccccc34)C2C1` (centres undefined), the survival is inactive: 108%.

Take `C1Cc2nn3c(c2C1)n1nc2c(c1n1nc4c(c31)CCC4)CCC2`: the survival is inactive: 73%.

Consider `CCN(C(=O)CCc1nc(-c2ccc(C)cc2)no1)c1cccc(Cl)c1`, for which the survival is active: -5%.

Regarding `COc1cc2c(cc1OC)C(COc1ccc3c(C)cc(=O)oc3c1)N(C(=O)Cc1ccccc1)CC2` (centres undefined), the survival is inactive: 70%.

For the compound `COC(=O)c1cc2sccc2n1CC(=O)Nc1ccc(C)cc1C`, the survival is inactive: 102%.

On to `O=C(CCN1CCN(CCO)CC1)Nc1ccc(Br)cc1`, for which the survival was inactive: 67%.

`O=C(CCC1CCCC1)N1CCN(C2CCCCC2)CC1`: the survival was inactive: 70%.

Regarding `COc1ccc(C)cc1NC(=O)c1cc2ccccn2n1`, the survival was inactive: 78%.

With `CCc1ccc(NC(=O)C2CCCN(S(=O)(=O)c3cccc4nsnc34)C2)cc1` (centres undefined), the survival is inactive: 86%.

On to `COc1ccc(Nc2nnc(-c3ccc(C)c(S(=O)(=O)NCc4nc5ccccc5[nH]4)c3)c3ccccc23)cc1`, for which the survival was inactive: 126%.

In the case of `CN(C)CC[n+]1ccc(C(=O)c2ccccc2)cc1`, the survival is inactive: 70%.

Take `Cc1sc2nc(SCC(=O)NCCCN3CCOCC3)[nH]c(=O)c2c1C`: the survival is inactive: 95%.

`CCC(C)Sc1oc(-c2ccco2)nc1S(=O)(=O)c1ccc(Cl)cc1` (centres undefined): the survival was active: 49%.

Regarding `Clc1ccc(-c2csc(-c3nc(-c4ccc(Br)s4)cs3)n2)cc1`, the survival was inactive: 90%.

On to `O=C(NCc1ccc(Cl)cc1)c1ccc2c(c1)NC(=O)C(CS(=O)(=O)Cc1ccc(F)cc1Cl)N2` (centres undefined), for which the survival was inactive: 71%.

On to `Cc1ccc(NCc2nnc(SCC(=O)N3CCOCC3)o2)c(C)c1`, for which the survival is inactive: 74%.

Consider `CCOc1ccccc1C(=O)Nc1ccc(-n2nncc2-c2ccccc2)cc1`, for which the survival is inactive: 125%.

In the case of `COC(=O)C1=C(C)OC(N)=C(C#N)C1c1cc2ccc(C)cc2[nH]c1=O` (centres undefined), the survival was inactive: 75%.

Turning to `CCOC(=O)c1ccc(NC2(c3ccccc3)C(=O)c3ccccc3C2=O)cc1`, the survival is inactive: 73%.

Regarding `CCOC(=O)c1ccc(NC(=O)c2sc3ccccc3c2Cl)cc1`, the survival was inactive: 67%.

For `COc1ccccc1C(=O)Nc1nnc(S(=O)(=O)N2CCN(c3ccc(F)cc3)CC2)s1`, the survival is inactive: 50%.

`Cc1ccc(-c2nnc3ccccc3c2C(=O)Nc2ccc(C)c(F)c2)cc1`: the survival is inactive: 80%.

In the case of `COc1cccc(NC(=O)CCc2nnc3n(Cc4ccccc4Cl)c(=O)c4ccccc4n23)c1`, the survival is inactive: 93%.

For `Cc1ccc(NC(=O)c2c(C)nc3sc(C(=O)Nc4ccc(F)cc4)c(N)c3c2-c2ccc(Cl)cc2)c(C)c1`, the survival was inactive: 56%.

As for `Cc1ccc(Nc2c(-c3ccc(N4CCOCC4)cc3)nc3cccc(C)n23)cc1`, the survival is inactive: 103%.

For the compound `O=C1CC(c2nnc(Cc3c(F)cccc3Cl)o2)CN1c1ccccc1` (centres undefined), the survival was inactive: 129%.

In the case of `Cc1cccc(CN2C(=O)c3ccccc3S(=O)(=O)c3ccc(C(=O)N(C)Cc4ccccc4)cc32)c1`, the survival was inactive: 87%.

On to `Cc1cccc(NC(=O)Cn2nnc(C(=O)NCc3cccs3)c2N)c1`, for which the survival was inactive: 90%.

On to `CCC(C(=O)Nc1ccc(C(C)C)cc1)n1nc(C)n2c(cc3cc(C)ccc32)c1=O` (centres undefined), for which the survival was inactive: 70%.

As for `COc1ccc(Cl)cc1NC(=O)CCn1c(=O)c2cccn2c2ccccc21`, the survival was active: 42%.

Take `CN(C)c1ccc(CNC(=O)C2CCCN(S(=O)(=O)c3ccc4c(c3)CCCC(=O)N4)C2)cc1` (centres undefined): the survival was inactive: 117%.

Take `CC(=O)Nc1ccc(NC(NC(=O)c2ccco2)C(=O)c2ccc(Cl)cc2)cc1` (centres undefined): the survival is inactive: 91%.

Turning to `CC(=O)Nc1cc(-c2ccc(Cl)cc2)[nH]n1`, the survival is inactive: 106%.

With `Cc1ccccc1C(=O)NCc1nc(-c2ccc(Cl)cc2)no1`, the survival was active: 47%.

Consider `Cc1ccc(C)c(Cn2c(=O)cc(C(F)(F)F)c3c(C)nn(C)c32)c1`, for which the survival was inactive: 102%.

Consider `CCc1nnc(SCc2nc(-c3cccc(Cl)c3)oc2C)c2cc3sc(C)cc3n12`, for which the survival was inactive: 85%.

On to `COc1cc(OC)c(NS(=O)(=O)c2cc3c(cc2C)N(C(C)=O)CCO3)cc1Cl`, for which the survival was inactive: 89%.

Take `CN(C)CCN1C(=O)c2ccccc2C1=O`: the survival was inactive: 81%.

Consider `Cc1ccc(-c2cc3c(n2-c2ccc(C)cc2)CC(C)(C)CC3=O)cc1`, for which the survival is inactive: 74%.
